The whole screen tested about 73,000 compounds, of which about 2,500 (3.4%) were called active. Inconclusive results, whose numbers are uncertain, are shown with a selection of clear calls. The call rests on the fitted dose curve; in most records, active means well fitted inhibition curve with a large enough effect; inconclusive means small, poorly fitted or top-dose-only effect; inactive means no such curve, though single readings can be large or run the other way. Where the call is inconclusive, the potency comes from a doubtful curve fit.
Molecular target: 3-hydroxyacyl-CoA dehydrogenase type-2 (Homo sapiens) (UniProt Q99714)
Sequence of UniProt Q99714 (Q99714 whole entry, looked up): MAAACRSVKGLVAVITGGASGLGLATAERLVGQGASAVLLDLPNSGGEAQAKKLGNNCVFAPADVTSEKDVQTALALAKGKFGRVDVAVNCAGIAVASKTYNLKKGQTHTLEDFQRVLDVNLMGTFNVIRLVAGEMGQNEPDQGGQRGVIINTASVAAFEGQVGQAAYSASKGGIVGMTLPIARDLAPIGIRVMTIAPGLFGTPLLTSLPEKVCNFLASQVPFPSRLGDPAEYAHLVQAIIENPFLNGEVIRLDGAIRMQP
Sequence of UniProt Q99714 (Q99714 whole entry, looked up): as above
Test: qHTS Assay for Inhibitors of HADH2 (Hydroxyacyl-Coenzyme A Dehydrogenase, Type II); further: nearly all actives have a fitted effect of over 60% in size
Details: recombinant HADH2, NADH fluorescence, beta-hydroxybutyryl-CoA; activity change, negative = inhibition: at 57.1 µM (top of the series)
In short: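 NADH fluorescence (ex 360/em 450 nm) read every 30 s for 4 min; activity taken as last-minus-first time point difference. Enzyme 20 nM, NAD+ 1 mM, beta-hydroxybutyryl-CoA 90 uM, pH 9.0 Tris buffer.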
On the % scale 0 is the no-effect control and ±100 the full control effect; potency means the concentration at half of the fitted maximal effect; tags describe the fitted curve by direction and shape.

| SMILES | activity change, negative = inhibition | Potency |
| --- | --- | --- |
| NC1=C(O)C(=O)[C@H](c2c[nH]c3ccc(OCc4ccccc4)cc23)O1 | inactive: 12.7% [at 11.4 µM] | – |
| CC1=C(C(=O)Nc2ccccc2)C(c2ccco2)C(C#N)=C(SCC(=O)OC(C)C)N1 (stereo not given) | – | inconclusive: 31.6 µM [inhibitor, single point] |
| CCn1c(NCc2cc(OC)ccc2OC)nc2ccccc21 | inactive: 11% | – |
| Cc1cc(C)c2nc(C(F)(F)F)nc(N3CCN(C(=O)c4ccco4)CC3)c2c1 | – | inconclusive: 31.6 µM [inhibitor, single point] |
| COc1ccc(OC)c(S(=O)(=O)N(C)CC(=O)Nc2ccc3c(c2)OCO3)c1 | inactive: 2.69% | – |
| O=C1C2=C(c3ccccc31)[N+](=O)[C@@H]1CCCC[C@@H]1N2[O-] | – | inconclusive: 12.6 µM [inhibitor, partial curve] |
| C(CCc1nnc2c(n1)CCCC2)Cc1nnc2c(n1)CCCC2 | inactive: -2.01% [at 11.4 µM] | – |
| CN(C)c1ccc(-c2nc(Nc3ccncc3)c3ccccc3n2)cc1 | inactive: -21.8% | – |
| CC(C)C(=O)Nc1ccc2c(c1)nc1n2CCSC1 | – | inconclusive: 31.6 µM [inhibitor, single point] |
| COCCN1CCn2c(nc3cc(NC(=O)NC4CCCCC4)ccc32)C1 | – | active: 25.1 µM |
| Cn1c(SCC(=O)NC(C)(C)C)nc(O)cc1=O | – | inconclusive: 2 µM [inhibitor, partial curve] |
| CC(NS(=O)(=O)c1ccccc1)C(=O)Nc1nccs1 (stereo not given) | – | inconclusive: 39.8 µM [inhibitor, single point] |
| Oc1c(Cl)cc(Cl)c2c1NCCC2 | – | active: 0.501 µM |
| COC(=O)c1ccccc1NC1c2ccccc2C(=O)N1c1cccnc1 (stereo not given) | – | inconclusive: 20 µM [inhibitor, single point] |
| CN(Cc1cc2ccccc2[nH]c1=O)S(C)(=O)=O | – | inconclusive: 31.6 µM [inhibitor, single point] |
| COc1ccc(CN2C(=O)c3cccnc3C2Nc2cc(Cl)c(OC)cc2OC)cc1 (stereo not given) | – | inconclusive: 31.6 µM [inhibitor, single point] |
| COC(=O)c1ccc(CSc2ccc3nnc(-c4cccc(F)c4)n3n2)o1 | – | inconclusive: 39.8 µM [inhibitor, single point] |
| CCN1CCCC1CNC(=O)c1cc2c(=O)n(C)c3ccccc3c2n1C (stereo not given) | – | active: 31.6 µM |
| Cn1c(C(=O)O)cc2cc(F)ccc21 | inactive: 0.927% | – |
| CCCn1c(C)nc2c(N3CCCN(Cc4ccccc4)CC3)nc(C)nc21 | inactive: 12.3% | – |
| O=C(CNCC1CCCO1)Nc1ccccc1N1CCOCC1 (stereo not given) | – | inconclusive: 0.0316 µM [inhibitor, partial curve, poor fit] |
| CCC(C)Sc1nc2c(cnn2-c2ccc(C)c(C)c2)c(=O)[nH]1 (stereo not given) | inactive: 9.3% | – |
| COc1cc2c(C#N)c(N3CCCCC3)nc(N)c2c(N)n1 | – | active: 25.1 µM |
| O=C(NCc1ccc2c(c1)OCO2)c1ccncc1 | – | inconclusive: 31.6 µM [inhibitor, single point] |
| O=C(CSc1nnc(-c2ccccc2)o1)c1nnc(-c2ccccc2)o1 | – | inconclusive: 5.01 µM [inhibitor, full curve] |

| SMILES | activity change, negative = inhibition | Potency |
| --- | --- | --- |
| O=C(O)c1ccc(SSc2ccc(C(=O)O)cn2)nc1 | – | active: 0.0501 µM |
| Cc1cc(C)c2c(N)c(S(=O)(=O)c3ccccc3)sc2n1 | inconclusive: -34.5% [inhibitor] | – |
| Cn1c(NCCCO)nc2c(c1=O)C1(CCCCC1)Cc1ccccc1-2 | – | active: 31.6 µM |
| CN(C)CCCN=C(N)N | inactive: -0.585% [at 11.4 µM] | – |
| OC(COc1ccc2c(c1)CCC2)Cn1cnc2ccccc21 (stereo not given) | inactive: 5.09% | – |
| Cc1cc2c3nonc3ccc2n1C | – | inconclusive: 31.6 µM [inhibitor, single point] |
| CCCn1c(-c2ccc(F)cc2)nc2c(NC3CC4CCC(C3)N4C)nc(C)nc21 (stereo not given) | inactive: -4.69% | – |
| O=C(NCCO)c1cc2ccccc2c(=O)s1 | inactive: -6.62% | – |
| CCOC(=O)c1cc(-c2nnc(-c3cc(OC)c(OC)c(OC)c3)o2)c(C)nc1C | – | active: 5.01 µM |
| COc1ccccc1-c1noc(CCC(=O)Nc2cc(C(F)(F)F)ccc2Cl)n1 | – | inconclusive: 39.8 µM [inhibitor, single point] |
| COc1ccc2c(c1)CCc1c-2n[nH]c1C(=O)O | – | inconclusive: 39.8 µM [inhibitor, single point] |
| COc1ccc(S(=O)(=O)NCC2CCC(C(=O)N3CCC4(CC3)OCCO4)CC2)cc1 (stereo not given) | inactive: 0.327% | – |
| Cc1cccc(Nc2ncnc3nc[nH]c23)c1 | – | inconclusive: 39.8 µM [inhibitor, single point] |
| COc1cccc(-c2csc(N3CCN(C(=O)Nc4ccccc4OC)CC3)n2)c1 | – | inconclusive: 25.1 µM [inhibitor, single point] |
| COc1ccccc1-c1cncnc1NCc1cccc(C)c1 | – | inconclusive: 39.8 µM [inhibitor, single point] |
| c1coc(-c2nc3ccccc3nc2-c2ccco2)c1 | – | active: 7.94 µM |
| Cc1nc(C)c(C(=O)Nc2cccc(C)c2C)o1 | – | active: 10 µM |
| Cc1cc(C)n2cc(CSc3nc4cc(Cl)ccc4o3)nc2n1 | – | inconclusive: 39.8 µM [inhibitor, single point] |
| CCOc1ccc(C(C)(C)C)cc1S(=O)(=O)N1CC(C)OC(C)C1 (stereo not given) | – | inconclusive: 20 µM [inhibitor, partial curve, poor fit] |
| Oc1ccc(-c2nc3ncccn3c2Nc2ccc3c(c2)OCO3)cc1 | – | inconclusive: 25.1 µM [inhibitor, partial curve] |
| Clc1ccc2c(N3CCCC3)ccnc2c1 | – | inconclusive: 31.6 µM [inhibitor, single point] |
| Cc1nc(NCCO)c2nc(-c3ccccc3)n(CCN(C)C)c2n1 | – | inconclusive: 31.6 µM [inhibitor, single point] |
| Cc1cc2nc(-c3ccc(SCC(=O)N4CCN(C(=O)c5ccco5)CC4)nc3)[nH]c2cc1C | – | inconclusive: 31.6 µM [inhibitor, single point] |
| Fc1cc2nc(-c3ccncc3)[nH]c2cc1F | – | active: 25.1 µM |
| Cc1cccc(-c2nc(C#N)c(N3CCCCCC3)o2)c1 | – | inconclusive: 31.6 µM [inhibitor, single point] |

— PubChem BioAssay AID886 (National Center for Advancing Translational Sciences (NCATS), 2007)
